Measurements reported in a melting point compilation (Tetko et al.; mined from patent text by program, amines drawn as free bases though some values may be those of a salt).

Compound COc1ccc2cccc(Oc3cc(-c4ccc(C(F)(F)F)cc4)ncn3)c2n1 has a melting point of 158 to 161 °C.
